Reference: PMC5993198 (Biochemistry, 2018)

Target: Recombinant Flag-p53 wt bound to anti-Flag M2 affinity beads (UniProt P04637)
Experiment: co-IP

UniProt P04637, sequence (P04637 whole entry): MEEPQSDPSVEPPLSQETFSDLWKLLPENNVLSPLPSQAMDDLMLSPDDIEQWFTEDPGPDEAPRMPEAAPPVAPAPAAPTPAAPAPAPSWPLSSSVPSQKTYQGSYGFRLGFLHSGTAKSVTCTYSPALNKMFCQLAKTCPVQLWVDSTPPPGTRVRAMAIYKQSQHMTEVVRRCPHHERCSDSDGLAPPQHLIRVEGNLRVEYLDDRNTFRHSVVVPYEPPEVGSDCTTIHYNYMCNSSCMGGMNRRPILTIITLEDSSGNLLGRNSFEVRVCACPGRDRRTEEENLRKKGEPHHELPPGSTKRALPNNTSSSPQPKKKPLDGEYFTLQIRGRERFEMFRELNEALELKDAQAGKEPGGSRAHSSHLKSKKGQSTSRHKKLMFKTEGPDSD

B1: Recombinant GST-RelA-AD ([…]) (domain or fragment)
chain: not shown
B1: binds.
